Results taken from PubChem BioAssay AID485313 (National Center for Advancing Translational Sciences (NCATS), 2010).
The campaign covered roughly 320,000 compounds. About 7,600 (2.4%) were called active. Inconclusive results, whose numbers are uncertain, are shown with a selection of clear calls. Calls follow the shape of the dose curve; as a rule, active = well fitted activation curve with a large enough effect; inconclusive = small, poorly fitted or top-dose-only effect; inactive = no such curve, though single readings can be large or run the other way. No potency is given beside an inconclusive call; the fits are too rough.

Experiment: qHTS Assay for NPC1 Promoter Activators; also: nearly all actives have a fitted effect of over 60% in size;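 as to activation: reporter is driven by a mutant NPC1 promoter; % of control where 0% means no effect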
Settings: Huh7 NPC1 promoter luciferase reporter, 24 h; series mostly up to 9.22 µM; activation: at the top concentration
Method in brief: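 Readout is luciferase luminescence, reflecting NPC1 promoter activation in stably transfected Huh7 cells after 24 h compound exposure at 37 °C in reduced-serum medium with 10% FBS.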
Potency is read from the fitted curve at half-maximal effect; tags tell the direction and shape of the fitted curve.

| SMILES | activation | Potency |
| --- | --- | --- |
| Cc1oc(-c2ccc3c(c2)OCCO3)cc1C(=O)O | inactive: -34% |  |
| Cc1ccc2[nH]c3c(N4CCCCCC4)ncnc3c2c1 | inactive: -5.75% |  |
| COc1ccc(-n2nc3cc(C)c(N)c(Br)c3n2)cc1 |  | active: 2.82 µM |
| Fc1ccc(-c2cnc(-c3cccs3)o2)cc1 |  | active: 3.98 µM |
| CC(=O)NC1Sc2ccccc2N=C1c1ccccc1 (centres undefined) |  | inconclusive [activator, single point] |
| N#Cc1ccccc1NC(=O)CSc1nccn1CCc1ccccc1 |  | inconclusive [activator, partial curve] |
| CCCn1nnnc1SCC(=O)c1ccc2c(c1)OCCO2 |  | inconclusive [activator, single point] |
| CCC(CC)C(=O)Nc1nnc(SCC(=O)NC(C)(C)C)s1 | inactive: -0.939% |  |
| COc1ccc(S(=O)(=O)N2CCC(C(=O)NC3CC3)CC2)cc1OC | inactive: 3.1% |  |
| Cn1c(SCC(=O)Nc2nnc(-c3ccccc3)o2)nnc1C1CC1 | inactive: 1.22% |  |
| CCC(CC)C(=O)Nc1nnc(S(=O)(=O)N2CCc3ccccc32)s1 | inactive: -1.12% |  |
| Fc1ccc(NC(=S)Nc2nccs2)cc1 |  | inconclusive [activator, partial curve] |
| O=C(Nc1ccccn1)c1c(O)c2cccc3c2n(c1=O)CCC3 |  | inconclusive [activator, single point] |
| COc1ccc([N+](=O)[O-])cc1C(=O)NCCOc1ccc(Cl)cc1 |  | inconclusive [activator, single point] |
| CCc1sc(C(=O)Nc2ncccc2O)cc1C |  | active: 1.58 µM |
| CN(C)c1ccc(NC(=O)c2cnsn2)cc1 |  | inconclusive [activator, full curve] |
| O=C(Nc1nc2ccccc2s1)c1ccc(N2CCCCC2)c([N+](=O)[O-])c1 |  | inconclusive [activator, partial curve] |
| CCc1nnc(NC(=O)c2ccc3ccccc3n2)s1 |  | inconclusive [activator, single point] |
| Brc1ccc(-c2nnc(-c3ccco3)o2)cc1 |  | active: 3.16 µM |
| CCOCCn1c(=O)c2c(nc3n2CCCN3CCc2ccccc2)n(C)c1=O | inactive: -2.64% |  |
| CCOC(=O)c1c(NC(=O)c2noc(C)c2[N+](=O)[O-])sc(C(C)=O)c1C | inactive: 1.34% |  |
| O=C(CSc1ncccn1)NCc1ccccc1Cl |  | active: 3.98 µM |
| Cc1ccc2cc(CCNC(=O)c3ccc(Br)o3)c(=O)[nH]c2c1 | inactive: 7.23% |  |
| O=C(Nc1nnc(-c2ccccc2)s1)c1ccc(F)cc1 |  | inconclusive [activator, partial curve] |
| CCCOc1ccc(-c2cn3ccccc3n2)cc1 |  | inconclusive [activator, partial curve, poor fit] |
| O=[N+]([O-])c1ccc2nc(-c3ccncc3)[nH]c2c1 |  | inconclusive [activator, single point] |
| CC(/C=N/NC(=O)c1c(Br)cnn1C)=C\c1ccccc1 | inactive: 23% |  |

| SMILES | activation | Potency |
| --- | --- | --- |
| C/C(Cl)=C/CSc1nn2c(=O)c3ccccc3nc2s1 |  | inconclusive [activator, single point] |
| CC1Cc2ccccc2N1C(=O)COc1ccc2c(c1)OCO2 (centres undefined) |  | active: 3.16 µM |
| COc1ccc(C(=O)Nc2ccccc2C(=O)Nc2ccccn2)cc1 |  | inconclusive [activator, single point] |
| COc1ccc(NC2CCCN(C(=O)c3cccc(N4CCNC4=O)c3)C2)cc1 (centres undefined) | inactive: -1.31% |  |
| COc1ccc2cc(C(=O)N3CCC(Cc4ccccc4)CC3)[nH]c2c1 |  | inconclusive [activator, single point] |
| Cc1onc(-c2ccccc2)c1C(=O)Nc1ncc([N+](=O)[O-])s1 | inactive: -11.3% |  |
| COc1cccc(/C=N/Nc2snc(SC)c2C#N)c1 |  | inconclusive [activator, partial curve] |
| NC(=O)c1cc2ccccc2oc1=NCc1ccccc1 |  | inconclusive [activator, partial curve] |
| CCCNC(=O)c1noc2c1CCc1ccccc1-2 |  | inconclusive [activator, partial curve] |
| Cc1ccc(SCC(=O)Nc2ccccc2C(=O)O)cc1 |  | inconclusive [activator, partial curve] |
| O=C(Nc1ccccc1C(=O)NC1CC1)c1ccccc1 | inactive: -5.68% |  |
| COc1ccc(Nc2n[nH]c(C)c2[N+](=O)[O-])cc1 | inactive: 22.3% |  |
| COc1ccccc1-n1c(C)cc(/C=C2/C(=N)N3C(=NC2=O)SN=C3S(C)(=O)=O)c1C |  | inconclusive [activator, partial curve] |
| CCOc1cc(C)c(Cl)cc1S(=O)(=O)n1cnc2ccccc21 | inactive: 1.87% |  |
| O=C1OC(c2ccc3c(c2)OCO3)N(C(=O)c2ccc(Cl)c(Cl)c2)c2ccccc21 (centres undefined) |  | inconclusive [activator, partial curve] |
| Oc1ccccc1/C=N/c1c(-c2ccco2)nc2ccccn12 |  | inconclusive [activator, single point] |
| O=C(Nc1ncc(Cc2cccc(Cl)c2)s1)c1cccs1 |  | inconclusive [activator, single point] |
| CCOC(=O)CSc1n[nH]c(NC(=O)NC(C)C)n1 | inactive: -2.61% |  |
| CCn1c(SCC(=O)c2ccc(Cl)cc2)nnc1-c1cccs1 | inactive: 0.463% |  |
| O=c1[nH]c(/C=C/c2ccccc2Cl)nc2ccccc12 |  | inconclusive [activator, partial curve, poor fit] |
| Cc1cccc2c1OCC/C2=N\NC(=O)COc1ccccc1 |  | inconclusive [activator, single point] |
| Cc1cc2c(s1)c(C#N)c(C(=O)NCc1ccccc1F)n2C | inactive: -2.01% |  |
| O=c1c2ccccc2nnn1CSc1nnc2sc3ccccc3n12 |  | active: 0.398 µM |
| COc1ccc(-c2nc3ccc([N+](=O)[O-])cc3[nH]2)cc1 |  | active: 1.58 µM |
| COc1ccc(-c2cc(-c3ccccc3O)[nH]n2)cc1OC |  | inconclusive [activator, single point] |
| O=C(NCc1ccc(F)cc1)Nc1ccccc1 |  | inconclusive [activator, single point] |
| COc1cccc(OCc2cc(C(=O)N3CCN(c4ccccc4O)CC3)no2)c1 |  | active: 2.82 µM |

| SMILES | activation | Potency |
| --- | --- | --- |
| Cc1cc(Cl)ccc1NC(=S)Nc1ccccn1 |  | inconclusive [activator, partial curve] |
| O=C1NC2(C=Cc3c(ccc4ccccc34)O2)Oc2ccccc21 (centres undefined) |  | inconclusive [activator, single point] |
| O=C(OCc1cc(=O)n2ccsc2n1)c1ccc(O)cc1O |  | inconclusive [activator, single point] |
| O=C(/C=C/Nc1ccc(Br)cc1F)c1ccco1 |  | active: 1.12 µM |
| COc1ccc(OC)c(-c2cnc(OC(C)(C)C)nc2OC(C)(C)C)c1 | inactive: -29.1% |  |
| C=CC[n+]1c(-c2ccc(C)cc2)csc1Nc1ccc(NC(C)=O)cc1 | inactive: -16.4% |  |
| CC1(C)C2CCC1(C(=O)O)c1nc3ccccc3nc12 (centres undefined) | inactive: 0.132% |  |
| C/C(=N\NC(=S)NC1CCCCC1)c1ccccc1 | inactive: 17.1% |  |
| CCOc1cccc(/C=C/c2ccc3cccc(O)c3n2)c1O |  | inconclusive [activator, partial curve] |
| CCCN(CC(=O)Nc1ccccc1C)C(=O)c1ccc2c(c1)S(=O)(=O)N=C1CCCCCN12 | inactive: -2.24% |  |
| c1cncc(Nc2nc(-c3cccs3)cs2)c1 |  | inconclusive [activator, partial curve] |
| O=C1C2C3C=CC(C4CC34)C2C(=O)N1/N=C/c1ccc([N+](=O)[O-])s1 (centres undefined) |  | inconclusive [activator, partial curve] |
| CC(C)NC(=O)COc1ccc(S(=O)(=O)N2CCCC2)cc1 | inactive: -2.2% |  |
| Oc1ccc(Br)cc1/C=N/n1cnc2ccccc21 |  | inconclusive [activator, single point] |
| CCC1=C(OC(=O)N(CC)CC)N2C(=O)OC(=NCC(=O)OC)[C@]2(C)[C@H]2C1=CC[C@H]1C(=O)N(CC(=O)OC)C(=O)[C@H]12 |  | inconclusive [activator, single point] |
| CCCCNc1ncnc2c1cnn2-c1ccccc1 |  | inconclusive [activator, partial curve] |
| Cc1cc(NC(=O)CSc2nnc(-c3ccc4c(c3)OCCO4)o2)no1 |  | inconclusive [activator, partial curve] |
| Cc1occc1-c1nnc(SC(C)C(=O)Nc2ccccc2F)o1 (centres undefined) |  | inconclusive [activator, partial curve] |
| Cc1ccc2sc(-c3ccc(NC(=O)/C=C\C(=O)O)cc3)nc2c1 |  | inconclusive [activator, partial curve] |
| COc1ccc(Nc2nc(-c3cccc(OC)c3O)nc3ccccc23)cc1 |  | inconclusive [activator, single point] |
| CCCc1ccc(S(=O)(=O)N2CCN(C(C)C(=O)NCc3ccc(OC)cc3)CC2)cc1 (centres undefined) | inactive: 2.82% |  |
| CN(C)c1ccc(/C=C/c2ccncc2)cc1 |  | inconclusive [activator, single point] |
| Cc1ccc(-c2cn3cc(C)ccc3n2)cc1 |  | inconclusive [activator, partial curve] |
| O=C(Cc1cccs1)N/N=C/C=C/c1ccccc1 |  | inconclusive [activator, single point] |
| Cc1cc(OCCN2CCOCC2)ccc1Cl |  | inconclusive [activator, partial curve] |
